{"source": "PubChem BioAssay AID588591", "about": "(National Center for Advancing Translational Sciences (NCATS), 2011)", "note": "About 4,700 (1.2%) of roughly 390,000 compounds were called active. The shares of active, inactive and inconclusive entries below differ from those in the screen. Calls follow the shape of the dose curve; as a rule, active = well fitted inhibition curve with a large enough effect; inconclusive = small, poorly fitted or top-dose-only effect, or another doubt; inactive = no such curve, though single readings can be large or run the other way. Where the call is inconclusive, the potency comes from a doubtful curve fit. Potency is read from the fitted curve at half-maximal effect; tags tell the direction and shape of the fitted curve.", "data": [{"target": "DNA polymerase eta (Homo sapiens) (UniProt Q9Y253)", "sequence (Q9Y253 whole entry, looked up)": "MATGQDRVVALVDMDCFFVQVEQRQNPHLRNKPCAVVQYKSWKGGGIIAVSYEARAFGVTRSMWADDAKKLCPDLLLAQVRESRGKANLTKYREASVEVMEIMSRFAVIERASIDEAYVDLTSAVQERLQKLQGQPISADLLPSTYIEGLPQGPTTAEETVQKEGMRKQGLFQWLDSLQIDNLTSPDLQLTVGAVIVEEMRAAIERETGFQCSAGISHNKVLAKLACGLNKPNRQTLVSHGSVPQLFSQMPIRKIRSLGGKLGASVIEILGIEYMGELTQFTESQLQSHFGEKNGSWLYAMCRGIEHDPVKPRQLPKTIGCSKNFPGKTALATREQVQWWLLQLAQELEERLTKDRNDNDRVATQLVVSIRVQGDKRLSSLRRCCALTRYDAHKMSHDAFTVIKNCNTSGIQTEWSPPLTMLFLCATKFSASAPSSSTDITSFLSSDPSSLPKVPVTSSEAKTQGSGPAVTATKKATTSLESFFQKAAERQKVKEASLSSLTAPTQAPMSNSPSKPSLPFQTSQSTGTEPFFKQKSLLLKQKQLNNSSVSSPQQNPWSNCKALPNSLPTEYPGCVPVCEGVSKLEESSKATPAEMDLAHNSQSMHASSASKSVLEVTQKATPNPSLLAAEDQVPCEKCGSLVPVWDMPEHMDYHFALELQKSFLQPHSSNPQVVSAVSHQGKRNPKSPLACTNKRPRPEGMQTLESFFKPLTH", "assay": "qHTS for Inhibitors of Polymerase Eta", "details": "recombinant Pol eta, fluorescent DNA replication assay; series mostly up to 114 µM", "method_in_brief": "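Fluorescent replication assay: 50 nM final substrate added after a 15 min room-temperature compound preincubation with 10 nM enzyme. Signal taken at 0 min and again at 10 min.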", "values": [{"smiles": "Cc1c(-c2ccccc2)n[nH]c1C(=O)N=Nc1c(O)[nH]c2ccccc12", "Potency": "inconclusive: 56.2 µM [inhibitor, partial curve, poor fit]"}, {"smiles": "Cc1ccc(Nc2cc(=O)n(C3CCCCC3)c(=O)[nH]2)cc1C", "Potency": "inconclusive: 35.5 µM [inhibitor, single point]"}, {"smiles": "O=C(/C=C/c1ccccc1)NC(=S)Nc1ccccc1O", "Potency": "inactive"}, {"smiles": "Cc1noc(C)c1CSc1ccccc1C(=O)O", "Potency": "inconclusive: 89.1 µM [inhibitor, partial curve, poor fit]"}, {"smiles": "Cc1cc(O)c(NC(=S)NC(=O)c2ccc(-c3ccc(Cl)cc3)o2)cc1C", "Potency": "inconclusive: 10 µM [inhibitor, partial curve, poor fit]"}, {"smiles": "O=C(Nc1nnc(SCc2ccc(F)cc2)s1)C1Cc2ccccc2CN1C(=O)c1ccco1", "note": "(stereo unspecified)", "Potency": "active: 22.4 µM"}, {"smiles": "Cc1ccc2nc3c(c(C(=O)O)c2c1)CCC3", "Potency": "active: 31.6 µM"}, {"smiles": "O=C(NC1CCCCC1)C(c1cccnc1)N(C(=O)CCl)c1cccc(Cl)c1", "note": "(stereo unspecified)", "Potency": "inconclusive: 25.1 µM [inhibitor, single point]"}, {"smiles": "O=C(CCN1C(=O)/C(=C/c2ccccc2Cl)SC1=S)Nc1ccccc1C(=O)O", "Potency": "active: 79.4 µM"}, {"smiles": "Cc1ccc(/C=N/NC(=O)CCCOc2ccc(Cl)cc2Cl)cc1[N+](=O)[O-]", "Potency": "inconclusive: 28.2 µM [inhibitor, partial curve, poor fit]"}, {"smiles": "O=C(NCc1cccc(F)c1)C1=Cc2cc(Br)ccc2OC1", "Potency": "inactive"}, {"smiles": "COc1ccccc1N(C(C)=O)C1=C(Cl)C(=O)c2ccccc2C1=O", "Potency": "active: 50.1 µM"}, {"smiles": "COc1ccc(-c2cc(-c3ccco3)[nH]c(=O)c2C#N)cc1", "Potency": "inconclusive: 56.2 µM [inhibitor, partial curve, poor fit]"}, {"smiles": "CCN1C(=O)c2cccc3c(S(=O)(=O)N(C(=O)c4ccncc4)c4ccc(OC)cc4)ccc1c23", "Potency": "inconclusive: 39.8 µM [inhibitor, partial curve, poor fit]"}, {"smiles": "COc1cccc(-c2nc(-c3ccc(NC(=O)c4cccnc4)cc3)no2)c1", "Potency": "inconclusive: 15.8 µM [inhibitor, full curve]"}, {"smiles": "CCCCNS(=O)(=O)c1ccc2nc(NC(=O)c3cccnc3)sc2c1", "Potency": "active: 50.1 µM"}, {"smiles": "Nc1ncc([N+](=O)[O-])cc1S(=O)(=O)c1ccccc1", "Potency": "inactive"}, {"smiles": "O=C(/C=C/c1ccco1)NCCc1ccccc1", "Potency": "inactive"}, {"smiles": "CCOc1cc(Br)cc(/C=C2\\SC(=Nc3ccccc3)NC2=O)c1O", "Potency": "inconclusive: 28.2 µM [inhibitor, full curve]"}, {"smiles": "Cc1cc(C)c(NC(=O)c2cccc3c2C(=O)N(C2CCCCC2)C3)c(C)c1", "Potency": "inactive"}, {"smiles": "Cc1nc(-c2ccncc2)sc1C(=O)Nc1ccc(Cl)cc1", "Potency": "inactive"}, {"smiles": "COc1cc(/C=C(\\C#N)c2nc3ccc(C)cc3[nH]2)cc([N+](=O)[O-])c1O", "Potency": "active: 22.4 µM"}, {"smiles": "COc1cccc(/C=C2/C(=O)NN(c3ccc(C)c(C)c3)C2=O)c1", "Potency": "inactive"}, {"smiles": "Cc1cc(-c2csc(NC(=O)c3ccc(=O)n(C)n3)n2)c(C)n1CC1CCCO1", "note": "(stereo unspecified)", "Potency": "inconclusive: 89.1 µM [inhibitor, partial curve, poor fit]"}, {"smiles": "Nc1ncnc2nc(SCc3ccc(Cl)cc3Cl)[nH]c12", "Potency": "inconclusive: 0.631 µM [inhibitor, partial curve, poor fit]"}, {"smiles": "Cc1cc(C)nc(NC(=O)Cc2ccc(Br)cc2)n1", "Potency": "inconclusive: 100 µM [inhibitor, partial curve, poor fit]"}, {"smiles": "CCCCN(CC)CCNC(=O)c1cc2c(-c3ccc(Cl)cc3)nn(C)c2s1", "Potency": "inactive"}, {"smiles": "Cc1ccc(S(=O)(=O)c2nc(-c3ccco3)oc2SC(C)c2ccccc2)cc1", "note": "(stereo unspecified)", "Potency": "inconclusive: 79.4 µM [inhibitor, single point]"}, {"smiles": "FC(F)Oc1ccc(-c2csc(NNC3=NCCCCC3)n2)cc1", "Potency": "inactive"}, {"smiles": "CCN(Cc1ccc2c(c1)OCCO2)C(=O)CSc1nc(C)nc2sc(C)c(C)c12", "Potency": "inconclusive: 100 µM [inhibitor, partial curve, poor fit]"}, {"smiles": "Nc1nc(SCC(=O)Nc2ccc(OC(F)(F)F)cc2)[nH]c(=O)c1NC(=O)c1ccc(Br)o1", "Potency": "inconclusive: 28.2 µM [inhibitor, single point]"}, {"smiles": "O=C(CCc1nc2ccccc2c(=O)[nH]1)Nc1nnc(SCc2ccccc2)s1", "Potency": "inconclusive: 17.8 µM [inhibitor, partial curve]"}, {"smiles": "Cc1ccc(C(=O)N2CCC(c3c[nH]c4ccccc34)(c3c[nH]c4ccccc34)CC2)cc1", "Potency": "inactive"}, {"smiles": "O=C(COC(=O)/C=C/c1cccc(C(F)(F)F)c1)NC(=O)NCc1ccco1", "Potency": "inactive"}, {"smiles": "O=C(Cc1cccc(NC(=O)C2CCN(C(=O)c3ccccc3)CC2)c1)Nc1cccc(C(=O)N2CCOCC2)c1", "Potency": "inconclusive: 89.1 µM [inhibitor, partial curve, poor fit]"}, {"smiles": "Cc1ccc(NS(=O)(=O)c2ccc(NC(=O)N3CCCC3)cc2)cc1C", "Potency": "inactive"}, {"smiles": "CC(C)N(C(=O)Nc1ccc2nccnc2c1)C(C)C", "Potency": "inconclusive: 28.2 µM [inhibitor, partial curve]"}, {"smiles": "Cc1nc2cc(NS(=O)(=O)c3ccccc3F)ccc2s1", "Potency": "inconclusive: 89.1 µM [inhibitor, partial curve, poor fit]"}, {"smiles": "S=c1[nH]nc(-c2ccccc2)n1/N=C/c1ccc(-c2ccccc2Cl)o1", "Potency": "inconclusive: 14.1 µM [inhibitor, full curve, poor fit]"}, {"smiles": "Cc1ccc(S(=O)(=O)N2CCCCC2)cc1C(=O)Nc1cccnc1", "Potency": "active: 17.8 µM"}, {"smiles": "O=C(Nc1ccc(CN2CCOCC2)cc1)c1ccc(-c2cc(Cl)ccc2Cl)o1", "Potency": "inconclusive: 39.8 µM [inhibitor, single point]"}, {"smiles": "CC(C)CN(Cc1cc(=O)oc2cc3c(cc12)CCCC3)CC(C)C", "Potency": "inconclusive: 89.1 µM [inhibitor, partial curve, poor fit]"}, {"smiles": "COc1ccc(OC)c(NC(=O)c2c(NCc3ccc(C)o3)sc3c2CCC(C)C3)c1", "note": "(stereo unspecified)", "Potency": "inactive"}, {"smiles": "CC(Oc1ccccc1)C(=O)NC1C(=O)N2C1SC(C)(C)C2C(=O)O", "note": "(stereo unspecified)", "Potency": "inactive"}, {"smiles": "O=C(O)c1cc(-c2ccco2)nc2cc3ccccc3cc12", "Potency": "active: 20 µM"}, {"smiles": "CC(=O)c1cccc(S(=O)(=O)NCCc2csc3nc(-c4ccc(F)cc4)nn23)c1", "Potency": "inconclusive: 89.1 µM [inhibitor, single point]"}, {"smiles": "Nc1c(C(=O)Nc2ccccc2)sc2nc3c(c(-c4ccco4)c12)CCC3", "Potency": "inconclusive: 12.6 µM [inhibitor, partial curve]"}, {"smiles": "O=C(O)COc1ccccc1C=NNc1ccc([N+](=O)[O-])cc1S(=O)(=O)Nc1ccc(Cl)cc1", "Potency": "active: 22.4 µM"}, {"smiles": "CC(C)Cn1c(SCC(=O)c2c(N)n(C)c(=O)n(C)c2=O)nc2ccccc21", "Potency": "inconclusive: 39.8 µM [inhibitor, single point]"}, {"smiles": "COc1cccc2c1C(=O)c1c(O)c3c(c(O)c1C2=O)C[C@@](O)(C(=O)CO)C[C@@H]3OC1CC(N)C(O)C(C)O1", "note": "(stereo partly specified)", "Potency": "active: 5.01 µM"}, {"smiles": "O=C(O)C(c1ccccc1)N1C(=O)/C(=C\\c2ccc(-c3ccc(Br)cc3)o2)SC1=S", "note": "(stereo unspecified)", "Potency": "inconclusive: 39.8 µM [inhibitor, partial curve]"}, {"smiles": "c1ccc(-c2c[nH]c(-c3ccccc3)c2)cc1", "Potency": "inconclusive: 56.2 µM [inhibitor, partial curve, poor fit]"}, {"smiles": "O=C(NCc1ccco1)c1cccs1", "Potency": "inconclusive: 17.8 µM [inhibitor, partial curve, poor fit]"}, {"smiles": "O=C(O)C1=CC[C@@H](c2ccc(Cl)cc2)N(S(=O)(=O)c2ccc(Cl)cc2)[C@H]1c1ccc(Br)cc1", "Potency": "inconclusive: 89.1 µM [inhibitor, single point]"}, {"smiles": "CN(C)CCCN(C(=O)c1ccc2c(c1)CCCC2)c1nc2c(F)cccc2s1", "Potency": "inconclusive: 3.55 µM [inhibitor, full curve]"}, {"smiles": "O=C(NN=C1c2ccccc2-c2ccccc21)c1ccccc1", "Potency": "inactive"}, {"smiles": "CC(Sc1nnc(-c2ccc(O)cc2)o1)C(=O)Nc1cccc2ccccc12", "note": "(stereo unspecified)", "Potency": "inactive"}, {"smiles": "C#CCOCCOCCOCCNc1nc(N2CCN(C(=O)CCCCCCCCCCNC(=O)[C@H](CO)n3cc(CCCSC)nn3)CC2)nc(N2CCN(C(=O)CCCCCCCCCCNC(=O)[C@H](CCCN=C(N)N)n3cc(C[C@@H](C)CC)nn3)CC2)n1", "Potency": "inconclusive: 56.2 µM [inhibitor, partial curve, poor fit]"}, {"smiles": "CC(=O)c1c(C)oc2ccc(N(C(=O)Oc3ccccc3)S(=O)(=O)c3ccc(C(C)(C)C)cc3)cc12", "Potency": "inactive"}, {"smiles": "O=C(Nc1ccc(Br)cc1Cl)c1ccc2c(=O)n3c(nc2c1)CCC3", "Potency": "inconclusive: 39.8 µM [inhibitor, single point]"}, {"smiles": "O=C(O)COc1ccccc1/C=C1\\SC(=S)N(NC(=O)c2ccccc2O)C1=O", "Potency": "active: 31.6 µM"}, {"smiles": "COc1ccc(-c2nn(-c3ccccc3)cc2/C=C2/SC(=S)N(CCCC(=O)O)C2=O)c(C)c1", "Potency": "inconclusive: 10 µM [inhibitor, full curve]"}, {"smiles": "CC1=C(C(=O)OCc2ccccc2)C(/C=C/c2ccccc2)N2C(=O)CCSC2=N1", "note": "(stereo unspecified)", "Potency": "inconclusive: 25.1 µM [inhibitor, partial curve, poor fit]"}, {"smiles": "CCc1cccc(NC(=O)CN2CCCN(Cc3cccc(C)c3)S2(=O)=O)c1", "Potency": "inconclusive: 100 µM [inhibitor, partial curve, poor fit]"}, {"smiles": "COc1ccc(Br)cc1[C@H]1[C@H]2C=CC[C@@H](C)[C@@H]2C(=O)N1Cc1ccccc1", "Potency": "inconclusive: 79.4 µM [inhibitor, partial curve, poor fit]"}, {"smiles": "C/C=C\\C=C/C(=O)Nc1cccc(C2=NOC3(C2)C[C@H](C(N)=O)N(C(=O)CC)C3)c1", "note": "(stereo partly specified)", "Potency": "inconclusive: 28.2 µM [inhibitor, full curve]"}]}]}
